# Experimental data as given in the supplement of paper PMC3334620.
# Over roughly 33,000 sequences, “E-score (-0.5 to 0.5)” has its median near -0.012; the highest 2% begin near 0.29. This is one part of the list.
# Biological target: T1, Ybr033w (UniProt P38073)
# T1 sequence: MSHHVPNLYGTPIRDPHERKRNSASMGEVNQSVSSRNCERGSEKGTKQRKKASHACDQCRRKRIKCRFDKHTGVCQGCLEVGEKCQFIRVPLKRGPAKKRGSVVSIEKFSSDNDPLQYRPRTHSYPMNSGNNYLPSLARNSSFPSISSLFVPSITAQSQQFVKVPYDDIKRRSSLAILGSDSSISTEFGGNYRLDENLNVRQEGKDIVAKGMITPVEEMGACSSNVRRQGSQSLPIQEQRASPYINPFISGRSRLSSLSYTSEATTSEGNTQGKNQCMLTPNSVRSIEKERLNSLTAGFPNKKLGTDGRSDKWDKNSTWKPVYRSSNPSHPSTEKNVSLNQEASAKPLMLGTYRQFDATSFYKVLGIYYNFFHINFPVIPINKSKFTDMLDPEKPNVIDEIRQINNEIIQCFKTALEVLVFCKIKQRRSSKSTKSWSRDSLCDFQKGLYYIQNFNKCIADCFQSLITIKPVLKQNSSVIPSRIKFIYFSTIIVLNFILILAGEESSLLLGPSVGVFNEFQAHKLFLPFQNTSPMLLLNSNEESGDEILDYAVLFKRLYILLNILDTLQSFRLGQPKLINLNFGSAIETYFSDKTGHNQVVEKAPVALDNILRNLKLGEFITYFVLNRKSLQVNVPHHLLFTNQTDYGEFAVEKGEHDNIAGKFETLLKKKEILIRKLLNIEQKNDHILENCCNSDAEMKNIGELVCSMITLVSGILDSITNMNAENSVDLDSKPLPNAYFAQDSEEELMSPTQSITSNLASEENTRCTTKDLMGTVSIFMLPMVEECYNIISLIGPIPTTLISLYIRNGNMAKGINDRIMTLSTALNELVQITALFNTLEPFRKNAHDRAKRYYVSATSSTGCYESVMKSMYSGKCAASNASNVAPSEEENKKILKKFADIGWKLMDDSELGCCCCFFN
# Assay: PBM E-score (8-mer binding enrichment) (E-score (-0.5 to 0.5)); higher = stronger / more preferred TF binding; most listed sequences are background and not binding sites
# Details: protein concentration: 200 nM; construct: GST-full length
# Method in brief: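 The E-score, a modified Wilcoxon-Mann-Whitney statistic, was computed by the Universal PBM Analysis Suite for every ungapped eight-base word pooled with its reverse complement. Scans behind it were normalised with masliner after bound GST-tagged yeast transcription factors were detected with fluorescent anti-GST. The proteins, at about 100-200 nM, had been applied to universal all-10-mer Agilent arrays made double-stranded by primer extension.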
row,Sequence,PBM E-score
1,CAACATCG,0.0554
2,ACGGGTAT,0.0865
3,GGCAACTA,-0.00591
4,GCAAACAA,0.0425
5,AGTCAAAC,-0.00652
6,CAACGTTG,0.156
7,GGCGTCCA,-0.229
8,AATTCGGA,0.195
9,CTCGTTAA,0.00748
10,ACGTTTAA,0.218
11,ATCTTTGC,0.138
12,AACGAGTT,0.0306
13,CAACTAAA,0.24
14,GCACTCTA,0.0325
15,ATGTATGA,0.176
16,GCCATCAC,-0.14
17,CCCATTGA,0.0752
18,CGAGGCTA,-0.0892
19,CAAGTAAC,0.0748
20,CCCAGAAG,-0.0674
21,AGCCTTGG,-0.107
22,CAACCAGA,-0.0458
23,AACTAGTA,0.0764
24,AGAATACT,0.179

row,Sequence,PBM E-score
1,AAGTGTCC,0.0183
2,GACCGTCA,-0.23
3,GCATGACC,-0.263
4,AGTACCTA,0.164
5,TATGAATA,0.233
6,CACTTTCA,0.0427
7,GTAAACAC,0.0587
8,AGTTAACA,0.238
9,CCATACCG,0.00217
10,ATAGGGCA,-0.00562
11,AACAGCAT,0.111
12,GCAACTTA,0.156
13,CCCTCGAA,-0.182
14,CATAGCCG,-0.0951
15,ACCACTAC,-0.0385
16,GTGCTAAA,0.187
17,TCGGAAAA,0.424
18,AGTTCGAC,0.0206
19,CGTGCACA,-0.0994
20,AATGACCA,0.0707
21,ATGCATTC,0.117
22,GCTCCGCA,-0.0503
23,AGCCAACG,-0.0547
24,CCTCGAGC,0.064

row,Sequence,PBM E-score
1,CAGAACAA,0.281
2,GACATATC,0.179
3,AGCGAACT,0.0184
4,CCAGGGCA,-0.266
5,CCCAGGAG,-0.2
6,AGTACTTA,0.0464
7,ATAAGGTC,0.0871
8,ACGGGATA,0.163
9,AGAGAGCA,-0.211
10,CGATACAA,0.165
11,TTAACAAA,0.188
12,ACCAATAC,0.171
13,GCGTCGCA,-0.08
14,CACAAATA,0.246
15,CCGCGCGG,0.104
16,CGGGTCCA,-0.323
17,AGGGTGCG,-0.216
18,ACAATACA,0.0919
19,CGAATTAC,0.135
20,GCCCGCTA,-0.234
21,TGATGACA,-0.0281
22,TCCCGCGA,-0.135
23,GGCGAACC,-0.19
24,CAAAACTC,0.166

row,Sequence,PBM E-score
1,CGCCGTAG,-0.0208
2,GAGATATC,-0.0199
3,ACTTATGC,0.0897
4,GGAGGTAC,-0.0524
5,ATGCCACA,0.0887
6,CCCCATTC,-0.31
7,TAATCATA,0.195
8,CGAGTTCC,0.0481
9,GAAACTGC,-0.0174
10,GCCGGGAC,-0.274
11,GACGCCGA,-0.00763
12,CCACCAGC,0.0071
13,AGGAGCGG,-0.359
14,AAGGCCAC,-0.271
15,ACCAGGGG,-0.311
16,AAATCGAG,0.137
17,GGTTTGTA,0.00249
18,CGGCCTTC,-0.0472
19,CCATGTAC,-0.0793
20,ACTAATAC,0.228
21,CGCTGCAC,-0.213
22,CTGTTAAA,0.109
